Sequences with one replicate were seen in a single cluster, so their values are uncertain.
Tested on: ATP
Assay: switch fluorescence ratio, 500 uM ATP over buffer (Cy3 cluster intensity, sum of 5 cycles each) (fold (ratio)); higher = stronger signal-on switching upon ATP binding; sequences stand for … in TCGTCGGCAGCGTCAGATGTGTATAAGAGACAGTTTTTTTTTTTTTTTTTTTTTTTTT…TC
Conditions: aptamer strand: ATP DNA aptamer (quencher-CACCTGGGGGAGTATTGCGGAGGAAGG + anchor), 100 nM annealed; ATP concentration: 500 uM; one replicate
Outline: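 Cy3-labelled switching-strand clusters on a modified Illumina MiSeq flow-cell were annealed to 100 nM quencher-labelled ATP aptamer and imaged first in selection buffer, then after 15 min with 500 uM ATP at 22 °C. NaOH stripping and re-annealing separated each of five buffer/ATP cycles, and clusters outside 100-1000 RFU were excluded. The fluorescence ratio sums target-cycle Cy3 intensity over buffer-cycle Cy3 intensity per cluster and averages it per switch-domain sequence.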
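Note: ATP exposure 15 min at 22 °C before imaging.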

Sequence | switch fluorescence ratio
AATGGATAGG | 1.02
GCTACTTGGC | 1.08
CGGGATCTCG | 1
TAAGGGCAGC | 1.02
GGGAAATCCT | 1.12
GGGGAGAGC | 1
GTGTTTTTG | 1.01
GGGATCTAGC | 0.998
AGAATAGCTA | 1.01
ATGGGGCTAA | 1.41
TGTTTAAAAC | 1.04
ATATGGATG | 1.06
TTGTTTCTCG | 1.02
ATACAGAGA | 1
TTTCGCTGTA | 0.959
TTTGGCAATG | 1.07
TGGACGTCAT | 1.03
CACGTTAAAC | 1.29
ATGAAGGCCC | 1.02
AGACCTCTTA | 0.986
CGTTGGCGAA | 0.992
CCATAGCCGG | 1.09
AATGTGAACA | 1.07
GTATTCATTA | 1.02
GATGCTTATT | 0.999
GGGTAAGAAT | 1.02

Sequence | switch fluorescence ratio
TCGAAATGGT | 1.03
GCAGTATGTC | 0.91
GTAGATTTCA | 0.973
TCTAGAGATT | 1.06
TTAGAATGGT | 1
CGGTCCAGTG | 1.06
CGAACCGAGT | 1
TCGACCCCCG | 1.09
CTTACTACTC | 1.11
TGTTGAAGAG | 1.01
AGGCAGAACT | 1.03
GGAATCGACG | 1.01
CGCGGAGTTG | 0.993
TCTTTTAGC | 1.03
TCGGTCTTGG | 0.976
ATCATGTTGG | 0.948
ACTGTCAGC | 1.05
AGAGTACAAA | 0.991
GATTGAATCA | 0.998
TTTTCTTGCG | 0.942
GACTGTGC | 0.938
AGGAAATATA | 0.96
GCTTGCGTCC | 0.977
ATTCACAGTA | 1.09
GTCAAAAAAA | 0.971
AATTATACTA | 0.991

Sequence | switch fluorescence ratio
TGTTTGAACC | 1.01
AAGCAAGAA | 2.18
TACATGGTAG | 0.961
TAGAGGCTAC | 1.02
ATAAGTTGTG | 1.04
CGTCGAACAG | 0.996
ATATCGGTCG | 0.968
TATTAGGTTC | 0.994
ATTATTCGTT | 0.977
TCGAGTCAGG | 1.02
TGGCTGTTAC | 1.14
ATAGATTGGG | 0.971
TAGGCTGTT | 1
AGAAGATTAC | 1.06
TCCGGTTTGA | 1.01
GAAGATTCAG | 1
ATACCCTGTT | 1.04
AGTTGGTTTG | 0.954
GTGCCCACTT | 0.993
GTGTCAGCAC | 0.973
CGTGGATTCA | 1.02
GTCCTCGATG | 1.02
CATCCCACTC | 2.2
GGTCAAGTCA | 1.02
CAAGAGGACA | 1.07
AGTCACAGGA | 1

Sequence | switch fluorescence ratio
GAACGGAGGG | 1.06
CAAAGATTGA | 1
GGACTTTAGT | 0.997
CTAAATAACG | 0.975
GATAAAACAA | 1.01
CTGGTTTGGG | 0.994
GCGTGGTCCA | 1.01
CCTAATTGGT | 0.98
TCTGGGCAGG | 1.03
TTTTTAGCG | 0.97
TTTTCACTAT | 1.04
AAACATGTAT | 0.965
ACGACGCTGG | 2.5
TCAGGGTGA | 1.03
ATGTCATTGT | 1.02
CGAGAATAAG | 0.948
CCATGAGCGC | 0.929
ACAAATAGT | 0.966
TTAATGGCCG | 1.07
GGGCCCCGAT | 0.98
TTGGCTGGTT | 1.06
TTCGATGTTA | 1.02
AAAAGCTAAT | 1.02
TATGGTATG | 1
AATGTTGTCT | 0.975
GAGGCGATGT | 1.19

Sequence | switch fluorescence ratio
GACACATCTT | 1.02
CTGACCGATA | 1.25
TGAGTTCTAC | 0.909
AATTCGATTT | 0.983
TTAAAGTCCT | 0.99
TCAAGCAAGG | 1.15
AGGTACTTTG | 0.964
CCTGGCCACT | 1.05
TATCAGAAGA | 0.984
CCGCATGTTT | 2.52
ACGGTTGGAG | 1
GCGACAAGTT | 1.08
GCCGTGCATG | 0.992
TCCAGGAGCA | 1.11
TGGTGACTGT | 1.02
TTTGTAGCCT | 1.02
CATTGCTATG | 1.05
AACGACGACT | 1.08
GAGAATAAAG | 1.03
GTATTATAGC | 0.938
ATATCAGCGG | 0.99
AGACGAAACA | 1.17
GACGACATTA | 1.2
TCCTCTCGTA | 1.99
TGAGCCCTAC | 1.11
AGCCAATGAT | 0.98

Sequence | switch fluorescence ratio
TCACGCGTTT | 1.01
GTTTGATCTA | 0.96
GAATTATAGA | 1.01
AATAACTCA | 0.974
ACTACTAAGA | 1.09
TAGTAAATTG | 0.976
CCCTTGCTGA | 0.977
CAATACGAGG | 1.38
CAGTACACTG | 1.09
TCAGGAAAGA | 0.994
CAGTTGAAGA | 0.995
GGCCTGGCCG | 1.02
GCTTATAGAG | 1.01
CGCGATTTGT | 1.1
TCATGAGGCT | 0.983
GAAACCTAAT | 1.03
GAAGCCAAG | 1.04
ATTATTGAAA | 0.986
ATAGGGTCTA | 1.02
CTGAACTAGG | 0.961
TTAAGGGAGT | 0.965
AGGACGTGAG | 0.915
GGACATCCTG | 1.02
